Reference: PubChem BioAssay AID1865 (National Center for Advancing Translational Sciences (NCATS), 2009)
Screen size: about 280,000 compounds; about 540 (0.19%) were called active. The shares of active, inactive and inconclusive entries below differ from those in the screen. Calls follow the shape of the dose curve; as a rule, active = well fitted activation curve with a large enough effect; inconclusive = small, poorly fitted or top-dose-only effect; inactive = flat fitted curve, though single readings scatter. Potencies beside an inconclusive call are fits to weak or partial responses and may not hold up.

Test: Quantitative High-Throughput Screen for Regulators of Epigenetic Control; also: nearly all actives have a fitted effect of over 60% in size; as to GFP activation: % of control where 0% means no effect
Conditions: murine LDR cells, GFP reporter derepression, 30 h; GFP activation: at 53.9 µM (top of the series)
Method in brief: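 Derepression of a silenced CMV-GFP reporter in murine LDR cells is scored by enumerating GFP-positive cells with a laser-scanning microplate cytometer after 30 hours of treatment at 37 C.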
Potency is read from the fitted curve at half-maximal effect; tags tell the direction and shape of the fitted curve.

Row | SMILES | Potency | GFP activation
1 | Nc1c(C(=O)NC2CC2)sc2nc3c(c(-c4ccco4)c12)CC/C3=C/c1ccco1 | inconclusive: 31.6 µM [activator, single point] | 
2 | CSc1nnc(-c2cccc(NC(=S)NN)c2)o1 | inconclusive: 35.5 µM [activator, single point] | 
3 | O=C(CSc1cccc[n+]1[O-])C12CC3CC(CC(C3)C1)C2 | inconclusive: 22.4 µM [activator, single point] | 
4 | C=C1c2cccc(O)c2C(O)=C2C(=O)[C@]3(O)C(O)=C(C(N)=O)C(=O)C(N(C)C)C3C(O)C12 (stereo partly drawn) |  | inactive: 0%
5 | C=CCn1c(=NC(=O)c2cc(Cl)sc2Cl)sc2cc(S(N)(=O)=O)ccc21 | inconclusive: 31.6 µM [activator, single point] | 
6 | O=C(CN1CCN(c2ncccn2)CC1)N(Cc1ccccc1)c1ccc(F)cc1 | inconclusive: 35.5 µM [activator, single point] | 
7 | Cc1ccc(S(=O)(=O)N2CCCC(c3nc4c(nnn4Cc4ccc(OC(F)(F)F)cc4)c(=O)[nH]3)C2)cc1 (stereo not drawn) |  | inactive: 0%
8 | CCCC(=O)NC(c1ccc2c(c1)OCO2)c1cc(Cl)c2cccnc2c1O (stereo not drawn) | inconclusive: 25.1 µM [activator, single point] | 
9 | Cc1[nH]c2ccccc2c1/C=C/c1cc[n+](C)cc1 | active: 14.1 µM | 
10 | CC1(C)CC(=O)C(N=Nc2ccc(-c3ccccc3)cc2)=C(O)C1 | inconclusive: 31.6 µM [activator, single point] | 
11 | COC(=O)CSc1nc2c(cnn2-c2ccc(F)cc2)c(=O)[nH]1 |  | inactive: 0%
12 | O=C(CSc1cccc[n+]1[O-])c1ccccc1Br | active: 3.55 µM | 
13 | Cc1ccc(CNC(=O)c2ccc(-n3c(C)cc4c3CCCC4)cc2)cc1 | inconclusive: 28.2 µM [activator, single point] | 
14 | C/C(=N/NC(N)=S)c1ccc(Br)s1 | inconclusive: 25.1 µM [activator, single point] | 
15 | COC(=O)NC(/C(C(=O)OC)=C(\C)NCc1ccccc1)c1ccc(Cl)cc1 (stereo not drawn) |  | inactive: 0% [at 10.1 µM]
16 | Cc1cc(C(=O)COC(=O)c2ccc(O)cc2)c(C)n1CCc1ccc(F)cc1 |  | inactive: 2.85%
17 | Cc1ccc(/C=N/NC(=O)c2ccc3c(c2)OCCO3)s1 |  | inactive: 1.14%
18 | CCOc1cc(/C=C2\SC(=N)N(c3nccs3)C2=O)ccc1OCCN1CCOCC1 | inconclusive: 17.8 µM [activator, single point] | 
19 | COc1ccc(CCNC(=O)c2nnc(Cc3ccc(Cl)cc3)o2)cc1OC | inconclusive: 35.5 µM [activator, single point] | 
20 | Nn1c(COc2cccc(Br)c2)nnc1SCC(=O)N1CCc2ccccc2C1 | inconclusive: 5.01 µM [activator, single point] | 
21 | Cc1onc(-c2ccccc2)c1C(=O)N/N=C/C(Br)=C/c1ccccc1 | inconclusive: 35.5 µM [activator, single point] | 
22 | Cc1cc(-c2csc(NC(=O)c3ccccc3C(F)(F)F)n2)c(C)n1Cc1ccccc1 |  | inactive: -0.862%
23 | Nc1cc(Cl)nc(N/N=C/c2ccc([N+](=O)[O-])cc2)n1 | inconclusive: 35.5 µM [activator, single point] | 

Row | SMILES | Potency | GFP activation
24 | CC1=C(C)/C(=N\OC(=O)/C=C/c2ccccc2)C=CC1=O | inconclusive: 17.8 µM [activator, single point] | 
25 | O=C1C(CSCc2ccccc2)NC(=S)N1c1ccccc1 (stereo not drawn) | inconclusive: 25.1 µM [activator, single point] | 
26 | COc1ccc(-c2nnc3ccc(SCc4ccccc4)nn23)cc1 | inconclusive: 22.4 µM [activator, single point] | 
27 | COc1cc(/C=N/NC(=O)c2ccc3ccccc3c2)ccc1Oc1ccc([N+](=O)[O-])cn1 |  | inactive: -0.0192%
28 | CC(C)CCNC(=O)c1ccc2c(c1)NC(=O)C(CS(=O)(=O)Cc1cccc(Br)c1)N2 (stereo not drawn) | inconclusive: 28.2 µM [activator, single point] | 
29 | COc1cccc(C(=O)c2sc3nc(-c4ccccc4)cc(C(F)(F)F)c3c2N)c1 | active: 1.58 µM | 
30 | C=C(C)COc1ccc(-c2n[nH]c(C)c2-c2ccc(Br)cc2)c(O)c1 |  | inactive: -1.09%
31 | CCOC(=O)c1c(NC(C)=O)sc2c1CCC(C=O)=C2Sc1ccccc1 | inconclusive: 31.6 µM [activator, single point] | 
32 | COc1nnc(-c2ccc(N3CCOCC3)c(NC(=O)c3ccc(C)cc3)c2)c2ccccc12 | inconclusive: 22.4 µM [activator, single point] | 
33 | CCCCOc1ccc(C(=O)CCN2CCOCC2)cc1 | inconclusive: 15.8 µM [activator, single point] | 
34 | CCn1c(C(=O)N2CCC(C(=O)NCCc3ccc(OC)cc3OC)CC2)cc2sccc21 | inconclusive: 0.158 µM [activator, full curve, poor fit] | 
35 | Cc1cc(C)cc(NS(=O)(=O)c2ccc3c(c2)NC(=O)C(C)S3)c1 (stereo not drawn) | inconclusive: 14.1 µM [activator, single point] | 
36 | CC(=O)N1CCc2c(sc(NC(=O)c3ccc([N+](=O)[O-])o3)c2C#N)C1 | active: 11.2 µM | 
37 | CCOC(=O)/C=C/C(=O)Nc1nccs1 | inconclusive: 35.5 µM [activator, single point] | 
38 | COc1cccc(CNC(=O)CCc2c(C)c3cc4c(C)coc4cc3oc2=O)c1 |  | inactive: 0%
39 | COc1cccc(N2CCN(C(=O)CCn3nc(C)c(S(=O)(=O)N4CCCC4)c3C)CC2)c1 | inconclusive: 6.31 µM [activator, single point] | 
40 | O=C(N/N=C/c1ccc(N2CCOCC2)o1)c1cccc([N+](=O)[O-])c1 |  | inactive: -6.25%
41 | CN(C)c1ccc2c3c(cccc13)C(=O)N(c1ccccc1)C2=O | inconclusive: 14.1 µM [activator, single point] | 
42 | Cc1nn(CC(=O)Nc2ccc(C(C)C)cc2)c(=O)c2c(C)n(-c3ccc(Cl)cc3)nc12 | inconclusive: 31.6 µM [activator, single point] | 
43 | Cc1ccccc1C(=O)N1CCC(C(=O)Nc2cccc(F)c2)CC1 | inconclusive: 11.2 µM [activator, single point] | 
44 | CCCCn1c(=O)c2c(O)cc(=O)oc2c2ccccc21 | inconclusive: 25.1 µM [activator, single point] | 
45 | COc1cc(OC)c(OC)cc1CNC1CCCCCC1 |  | inactive: 0%
46 | COc1ccc2sc(NC(=O)CC(C)C)nc2c1 | inconclusive: 3.98 µM [activator, single point] | 

Row | SMILES | Potency | GFP activation
47 | O=Nc1ccc(O)c2ncccc12 | inconclusive: 0.631 µM [activator, partial curve, poor fit] | 
48 | Cc1ccccc1NC(=O)CSc1ncc2c(n1)-c1ccccc1N(C)S2(=O)=O | inconclusive: 31.6 µM [activator, single point] | 
49 | C=CC[C@@H]1C=C[C@H](O/N=C\[C@@H](C)[C@H](OCc2ccccc2)C(C)C)[C@H](CO)O1 |  | inactive: 0% [at 10.1 µM]
50 | COc1ccc(-c2c(C)nn3c(N4CCN(Cc5ccccc5)CC4)cc(C)nc23)cc1OC | inconclusive: 31.6 µM [activator, single point] | 
51 | CCc1ccc(NC(=O)N2CC=C(c3c[nH]c4ccccc34)CC2)cc1 | inconclusive: 17.8 µM [activator, single point] | 
52 | COc1ccc(CC(=O)NCc2ccc3c(c2)cc(C)n3C)cc1 |  | inactive: -2.49%
53 | O=C(CNC1=NCCC1)c1ccc2c(c1)OCCO2 | inconclusive: 6.31 µM [activator, single point] | 
54 | CCOC(=O)c1ccc(-c2ccc(/C=C(\C#N)C(=O)Nc3cccc(C)c3)o2)cc1 | inconclusive: 22.4 µM [activator, single point] | 
55 | Cn1c(C(=O)N2CCN(c3ccc(Cl)cc3)CC2)cc2c(=O)[nH]c3ccccc3c21 | inconclusive: 22.4 µM [activator, single point] | 
56 | CN(C)c1nc(N/N=C/c2ccccc2O)nc(Nc2ccc(F)cc2)n1 | inconclusive: 25.1 µM [activator, single point] | 
57 | O=C1c2ccccc2C(=O)c2c(NCCCN(CCO)CCO)cccc21 | inconclusive: 22.4 µM [activator, single point] | 
58 | COc1ccc(C(=O)/C=C/N(C)C)cc1OC |  | inactive: -0.0903%
59 | Nc1nc(=S)c2ncn([C@H]3O[C@@H](CO)[C@@H](O)[C@@H]3O)c2[nH]1 |  | inactive: -0.317% [at 16.9 µM]
60 | Cc1cccc(NN=C2c3ccccc3-c3ccccc32)c1 | inconclusive: 35.5 µM [activator, single point] | 
61 | COc1cc([N+](=O)[O-])ccc1N/C=C/C(=O)c1cccs1 | inconclusive: 31.6 µM [activator, single point] | 
62 | COc1ccc(NC(=S)NC(C)Cc2cccs2)cc1 (stereo not drawn) | inconclusive: 35.5 µM [activator, single point] | 
63 | CC(C(=O)NCC1CCCO1)n1cccc1C(=O)c1ccccc1 (stereo not drawn) |  | inactive: 2%
64 | O=C(C1=C[C@@H](c2coc3ccccc3c2=O)C[C@@H](OCCCCO)O1)N1CCOCC1 | inconclusive: 6.31 µM [activator, single point] | 
65 | CCOc1ccc(NC(=O)CSc2oc(-c3ccco3)nc2S(=O)(=O)c2ccc(Cl)cc2)cc1 | inconclusive: 31.6 µM [activator, single point] | 
66 | NC(=O)Cn1c(=O)n(CCc2ccccc2)c(=O)c2c3c(sc21)CCCC3 |  | inactive: 2.11%
67 | Cc1[nH]c2ccccc2c1C1(O)C(=O)N(Cc2ccccc2)c2ccc(Br)cc21 (stereo not drawn) | inconclusive: 35.5 µM [activator, single point] | 
68 | CN1C(=O)C2(c3ccccc31)c1c(oc3ccccc3c1=O)C(=O)N2CCO (stereo not drawn) |  | inactive: -0.0112%
